Out of some 48,000 compounds screened, about 1,200 (2.5%) were called active. About 2% were inconclusive and are not listed.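 The calls were made as follows: active = activation of at least 60% and not above a set upper limit (about 1 call in 100 departs from these limits); inconclusive = activation of 40% to 60%, or above that upper limit; inactive = activation under 40%.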 Some of the results follow.
What follows are molecules tested against Probable G-protein coupled receptor 32 (Homo sapiens) (UniProt O75388) (assay: qHTS for Agonists of Human Resolvin D1 Receptor DRV1). Conditions: CHO-K1 GPR32 beta-arrestin PathHunter luminescence, 90 min; at 76.9 µM; hits give high values; zero percent set by DMSO-only wells.
UniProt O75388, sequence (O75388 whole entry, looked up): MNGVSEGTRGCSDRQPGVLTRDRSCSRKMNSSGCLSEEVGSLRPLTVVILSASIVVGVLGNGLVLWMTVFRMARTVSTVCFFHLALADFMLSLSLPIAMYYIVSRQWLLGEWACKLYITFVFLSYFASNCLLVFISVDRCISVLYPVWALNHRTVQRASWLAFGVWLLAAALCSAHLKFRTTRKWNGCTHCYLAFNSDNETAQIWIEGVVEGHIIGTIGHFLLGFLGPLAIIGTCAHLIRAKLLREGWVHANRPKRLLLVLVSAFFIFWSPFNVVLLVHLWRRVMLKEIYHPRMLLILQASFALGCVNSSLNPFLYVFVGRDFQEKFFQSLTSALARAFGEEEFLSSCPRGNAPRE
Summary of the method: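 Luminescent readout of beta-Gal complementation quantifies ligand-induced beta-arrestin association with GPR32 in CHO-K1 cells; 90 min compound incubation at 37 °C, detection 1 h at room temperature.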
Also: 0% is about no effect.

Row | Compound | activation
1 | CCc1cc(=O)oc2cc(C)c3c(-c4ccc(F)cc4)coc3c12 | inactive: 0.505%
2 | CCCN(CCC)CCCNC(=O)c1cc2c(-c3ccc(Cl)cc3)nn(C)c2s1 | inactive: -1.75%
3 | Cc1ccc(S(=O)(=O)N2CCC(C(=O)Nc3cc(C)ccc3C)CC2)cc1 | inactive: 13.3%
4 | COc1ccc(Cn2c(=O)c3oc4ccccc4c3n(Cc3ccccc3)c2=O)cc1 | inactive: -15%
5 | CCN1CCCC(OC(=O)C(c2ccccc2)c2ccccc2)C1 (stereo not given) | inactive: -1.15%
6 | COc1cc(-c2cc3n(C)c(C)c(CCC(=O)Nc4ccc(F)cc4)c(=O)n3n2)cc(OC)c1OC | inactive: -1.57%
7 | Nc1ccc(C(=O)O)cc1 | inactive: 14.6%
8 | O=C(CSc1c2c(nc3ccccc13)CCC2)Nc1ccc(F)cc1F | inactive: -26.4%
9 | Cc1ccc(OCCSc2nc(-c3cccs3)nc3cc(=O)[nH]n23)cc1Cl | inactive: 1.06%
10 | CCOC(=O)c1[nH]c(C)c(CCC(=O)NCc2cccc(Cl)c2)c1C | inactive: -7.9%
11 | COC(=O)c1ccc([C@@H]2Nc3c(cccc3C(F)(F)F)[C@@H]3C=CC[C@@H]32)cc1 | inactive: -24.1%
12 | COc1ccccc1CCNC(=O)Cc1c(C)c2c(O)cc(C)cc2oc1=O | inactive: -0.368%
13 | COc1ccccc1NC(=O)c1cc(S(=O)(=O)N2CCc3ccccc32)ccc1F | inactive: -12.2%
14 | COc1ccc(NC(=O)c2cc3c(=O)n(Cc4cccnc4)ccc3nc2C)cc1Cl | inactive: -0.688%
15 | C=Cc1ccc(Cn2c(=O)cc(C)c3c(C)nn(C)c32)cc1 | inactive: 10.7%
16 | Cc1cccc(N2CCN(c3c4c(nc5nncn35)CCC4)CC2)c1C | inactive: -8.22%
17 | CN(C)c1ccc(C(CNS(=O)(=O)c2ccc(F)cc2)N2CCc3ccccc32)cc1 (stereo not given) | inactive: -31.6%
18 | COc1ccc(S(=O)(=O)c2cn(Cc3ccccc3)c3ccc(OC)cc3c2=O)cc1 | inactive: -15.3%
19 | COc1cc(-c2nnc(SCC(=O)Oc3ccccc3Cl)o2)cc(OC)c1OC | inactive: -2.67%
20 | O=[N+]([O-])c1nccn1CO[C@@H](CO)[C@H](O)CO | inactive: -1.14%
21 | O=c1c(N2CCc3ccccc3C2)csc2ccc(Br)cc12 | inactive: -42.5%
22 | COc1ccccc1NC(=O)c1cc(C2CC2)nc2c1c(C)nn2-c1ccc(C)cc1 | inactive: -4.36%

Row | Compound | activation
23 | CC(C)CCN(Cc1ccco1)C(=O)Cn1ncc2c([nH]c3ccccc32)c1=O | inactive: 16.4%
24 | Cc1cccc(C(=O)Nc2ccc(N3CCN(c4ccc(F)cc4)CC3)c(C(=O)O)c2)c1 | inactive: -7.54%
25 | CCOC(=O)c1cc(-c2ccccc2)n(CCCC(=O)Nc2cc(C)ccc2OC)c1C | inactive: -30.9%
26 | COc1ccccc1Cc1nc2ccccc2nc1SCC(=O)N1CCC(C)CC1 | active: 64.4%
27 | COc1ccc(OC)c(NC(=O)CCc2nc(-c3ccc(C)cc3)no2)c1 | inactive: 25.9%
28 | Cc1c(C(=O)N2CCC(C)CC2)c(S(=O)(=O)N2CCN(c3cccc(Cl)c3)CC2)c(C)n1C | inactive: -33.8%
29 | Cc1ccn2c(Nc3ccc4c(c3)OCCO4)c(-c3ccc(C)s3)nc2c1 | inactive: -4.6%
30 | Cc1ccc2nc(SCC(=O)Nc3ccc(C#N)cc3)[nH]c2c1 | inactive: 45%
31 | COc1ccc(Nc2cc(C(=O)NCc3ccccc3)c3ccccc3n2)cc1OC | inactive: -4.58%
32 | O=c1c(S(=O)(=O)c2ccc(Cl)cc2)cn(Cc2ccc(F)cc2)c2ccc(F)cc12 | inactive: -22.8%
33 | CCOc1ccc(C(=O)NCc2ccc3c(c2)CCN3C(=O)c2ccc(C)cc2)cc1OCC | inactive: -19.9%
34 | COc1ccc(S(=O)(=O)c2cn(Cc3ccccc3)c3cc(F)c(F)cc3c2=O)cc1 | inactive: -6.2%
35 | CN1C(=O)c2[nH]nc(-c3ccc(F)cc3)c2C1c1ccccn1 (stereo not given) | inactive: -0.443%
36 | Cc1cc(OCC(=O)NCC2(N3CCOCC3)CCCCC2)ccc1Cl | inactive: -23.8%
37 | CCc1noc(-c2ccc(N3CCCCC3)c([N+](=O)[O-])c2)n1 | inactive: 0%
38 | COc1ccccc1CN1CCC(CNC(=O)c2cnn(-c3ccc(C)c(C)c3)c2C2CCN(C(=O)OC(C)(C)C)CC2)CC1 | inactive: -20%
39 | CCc1cccc(NC(=O)C(CC(C)C)NS(=O)(=O)c2ccc3c(c2)oc(=O)n3C)c1 (stereo not given) | inactive: 2.82%
40 | CCC(=O)N1CCc2cc(CNC(=O)Nc3cc(Cl)ccc3C(=O)OC)ccc21 | inactive: -10.6%
41 | Brc1ccc2nc(-c3ccccc3)c(Nc3ccc4c(c3)OCO4)n2c1 | inactive: -6.33%
42 | CCCN(CCC)CCNC(=O)c1cc(-c2ccc(Br)s2)nc2ccccc12 | inactive: -5.49%
43 | O=C(Nc1cccc(Cl)c1)C1CCCN1S(=O)(=O)c1cccc2cccnc12 (stereo not given) | inactive: -8.08%
44 | Cn1nnnc1SCCNCc1ccc(OCc2ccc(Cl)cc2)cc1 | inactive: 49.8%

Row | Compound | activation
45 | COc1ccccc1-c1nnc(SCC(=O)c2ccc(F)cc2)n1-c1ccccc1 | active: 69.9%
46 | CCc1ccc(CNC(=O)CN2C(=O)CCn3nc(-c4cn(C)c5ccccc45)cc32)cc1 | inactive: -9.62%
47 | Cc1cc(Cl)ccc1OCc1cc(=O)n2c3c(sc2n1)CCCC3 | inactive: 16.5%
48 | Cc1ccc(CN2C(=O)c3ccccc3Sc3ccc(C(=O)NCCCN4CCOCC4)cc32)cc1 | inactive: -9.79%
49 | CCc1ccc(C2=C(C)C(N3CCC(C(=O)NCCc4ccco4)CC3)=NS2(=O)=O)cc1 | inactive: -13.9%
50 | COc1cccc(OCC(=O)Nc2nnc3n2CCS3)c1 | inactive: -24.8%
51 | Cc1oc(-c2cccc(Cl)c2)nc1CN1CCC(C(=O)NCCc2ccc(Cl)cc2)CC1 | inactive: -2.52%
52 | Cc1cccc(NC(=O)CSc2nc(=O)n(Cc3cccnc3)c3c2CCC3)c1C | inactive: -9.31%
53 | C[C@H]1O[C@@H](n2cc(F)c(=O)[nH]c2=O)[C@H](O)[C@@H]1O | inactive: -5.08%
54 | COc1ccc(C(=O)Nc2ccc(N3CCOCC3)c(C(F)(F)F)c2)cc1OC | inactive: 37.1%
55 | Cc1ccc(Cn2c(C)c(CNC(C)c3ccccc3)c(C(=O)O)c2C)cc1 (stereo not given) | inactive: 0.0382%
56 | Cc1ccc(Cl)cc1N1CCN(c2ncnc3onc(-c4ccc(F)cc4)c23)CC1 | inactive: 7.48%
57 | O=C(c1ccc(CS(=O)(=O)c2c(Cl)cccc2Cl)o1)N1CCN(c2ccccc2)CC1 | inactive: -3.65%
58 | Cc1ccc(-n2c(SCC(N)=O)nc3c([nH]c4ccccc43)c2=O)cc1 | inactive: -17.2%
59 | Cc1cncn1CCc1nc2c3ccccc3nc(SCC(=O)Nc3ccccc3F)n2n1 | inactive: -16.7%
60 | CC(C)(C)c1ccc(-c2noc(CCC(=O)Nc3cccc(Cl)c3)n2)cc1 | inactive: 17.1%
61 | Cc1ccc(-c2nnc(Nc3cccc(C(F)(F)F)c3)c3ccccc23)cc1S(=O)(=O)N1CCOCC1 | inactive: -17.7%
62 | CCOC(=O)N1CCN(C(=O)CN(c2cc(C)ccc2OC)S(=O)(=O)c2ccc(C)cc2)CC1 | inactive: -7.78%
63 | CCOc1ccccc1CNC(=O)C1CCCN(S(=O)(=O)c2ccc3c(ccn3C)c2)C1 (stereo not given) | inactive: -10.5%
64 | CCc1ccc(-n2nc(C)c3c(C(=O)Nc4cc(C)ccc4C)cc(C)nc32)cc1 | inactive: 5.71%
65 | COc1ccccc1N1CCN(c2cc(C)nc3nc(-c4ccc(Cl)cc4)nn23)CC1 | inactive: -17.7%
66 | COc1ccc(OC)c(S(=O)(=O)NCCc2csc3nc(-c4ccccc4)nn23)c1 | inactive: -6.28%

Row | Compound | activation
67 | Cc1ccc(NC(=O)c2cc(S(=O)(=O)N3CCCC3)c[nH]2)c(C)c1 | inactive: -17.1%
68 | Cc1cccc(N2CCN(C(=O)c3ccc4c(c3)c(C)c(C)n4C)CC2C)c1 (stereo not given) | inactive: -18.2%
69 | COc1nc(-c2ccc(C)cc2)ccc1-c1noc(-c2ccc(C(C)(C)C)cc2)n1 | inactive: 9.01%
70 | COC(=O)c1sc2cccc(F)c2c1S(=O)(=O)N1CCN(c2ccc(C)cc2C)CC1 | inactive: -36.8%
71 | CC1CCN(S(=O)(=O)c2nnc(NC(=O)c3cccc(F)c3)s2)CC1 | inactive: 42.7%
72 | CC(C)NC[C@H](O)COc1cccc2ccccc12 | inactive: -2.66%
73 | CCOC(=O)c1c(NC(=O)COc2ccc(Cl)cc2C)sc(C(C)=O)c1C | inactive: -9.85%
74 | CCN1CCN(c2cc(C)c3cc(NC(=O)c4ccccc4F)ccc3n2)CC1 | inactive: -6.41%
75 | CCc1c(C)c2ccc(O)c(CN3CCN(c4ccccc4)CC3)c2oc1=O | inactive: -21.1%
76 | CC(=O)N1CCc2cc(Br)cc(S(=O)(=O)CCC(=O)Nc3ccc(C)cc3Cl)c21 | inactive: 4.82%
77 | CCOc1ccc2oc(=O)cc(CN3CCN(c4ccc(Cl)cc4)CC3)c2c1 | inactive: -13.4%
78 | Cc1c(C(=O)N(Cc2ccc(N(C)C)cc2)CC2CCCO2)oc2ccc(Br)cc12 (stereo not given) | inactive: -29.2%
79 | CCc1cccc(C)c1NC(=O)CN(C)S(=O)(=O)c1cccc2nsnc12 | inactive: 1.47%
80 | Cc1ccc(N2CCN(c3nc4c(S(=O)(=O)c5ccc(C)c(C)c5)nnn4c4ccccc34)CC2)c(C)c1 | inactive: -10.9%
81 | COc1ccc(C)cc1NC(=O)N1CCC(CN2CCC(C)CC2)CC1 | inactive: 5.24%
82 | Cc1ccc(S(=O)(=O)c2cn(C)c3cc(N4CCCCC4)c(F)cc3c2=O)cc1 | inactive: 6.6%
83 | CCCCn1c(SCC(=O)Nc2ccc(F)cc2)nc2c(sc3ccccc32)c1=O | inactive: 7.66%
84 | Fc1ccc(Nc2nc(Nc3ccc(F)cc3)nc(N3CCOCC3)n2)cc1 | inactive: -13.1%
85 | CC(C)c1ccc(NC(=O)Cn2nnc(C(=O)NCc3cccs3)c2N)cc1 | inactive: -1.88%

Reference: PubChem BioAssay AID1346428 (National Center for Advancing Translational Sciences (NCATS), 2018)
